# The list shows a part of the results.
# B1: Epa1 (Candida glabrata) (protein)
# chain: MGSSHHHHHHSSGLVPRGSHMTSSNDISLASKDPTTFPLGCSPDITTPKKGLSMELYSYDFRKKGSYPCWDAAYLDPNYPRTGYKSHRLLAKVDGVTGNINFYYHATKGCTPQLGHLPASYNYPKPLTMTNFTMLLYGYFRPKVTGFHTFTISADDLLFVNFGAGNAFDCCRRDSSADHFGNYQAYAIWGSKTAKDELTVHLDAGVYYPIRLFYNNREYDGALSFTFKTESNENTVSDFSEYFFSLDDTEEGCPGLISYD
# Experiments:
# Assay in all cases: glycan array binding signal (z-score within array); higher = stronger binding
# Details in all cases: glycan notation: IUPAC condensed, linker removed
# [1] = target: GlcNAc(b1-4)GlcNAc(b1-4)GlcNAc(b1-4)GlcNAc(b1-4)GlcNAc
# Method in brief: (§1)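 From the Consortium for Functional Glycomics database, 3228 arrays were curated, keeping only those whose protein sequence was available. Binding is given as a within-array Z-score averaged across arrays sharing a protein sequence and across linkers. Negative Z-scores can be read as non-binding.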
# [2] = target: GlcNAc(b1-4)GlcNAc(b1-4)GlcNAc(b1-4)GlcNAc(b1-4)GlcNAc(b1-4)GlcNAc
# Method in brief: as §1
# [3] = target: GlcNAc(b1-4)[GlcNAc(b1-6)]GalNAc
# Method in brief: as §1
# [4] = target: GlcNAc(b1-6)Gal(b1-4)GlcNAc
# Method in brief: as §1
# [5] = target: GlcNAc(b1-6)GalNAc
# Method in brief: as §1
# [6] = target: GlcNAc6S(b1-3)Gal(b1-4)GlcNAc
# Method in brief: as §1
# [7] = target: Kdn(a2-3)Gal(b1-3)GalNAc
# Method in brief: as §1
# [8] = target: Kdn(a2-3)Gal(b1-3)GlcNAc
# Method in brief: as §1
# [9] = target: Kdn(a2-3)Gal(b1-4)Glc
# Method in brief: as §1
# [10] = target: Kdn(a2-3)Gal(b1-4)GlcNAc
# Method in brief: as §1
# [11] = target: Kdn(a2-3)Gal(b1-4)[Fuc(a1-3)]GlcNAc
# Method in brief: as §1
# [12] = target: Kdn(a2-6)Gal(b1-4)GlcNAc
# Method in brief: as §1
# [13] = target: Man(a1-2)Man(a1-2)Man(a1-3)Man
# Method in brief: as §1
# [14] = target: Man(a1-2)Man(a1-2)Man(a1-6)[Man(a1-3)]Man
# Method in brief: as §1
# [15] = target: Man(a1-2)Man(a1-3)Man
# Method in brief: as §1
# [16] = target: Man(a1-2)Man(a1-3)[Man(a1-2)Man(a1-6)]Man
# Method in brief: as §1
# [17] = target: Man(a1-2)Man(a1-3)[Man(a1-2)Man(a1-6)]Man(a1-6)[Man(a1-2)Man(a1-2)Man(a1-3)]Man
# Method in brief: as §1
# [18] = target: Man(a1-2)Man(a1-3)[Man(a1-2)Man(a1-6)]Man(a1-6)[Man(a1-2)Man(a1-2)Man(a1-3)]Man(b1-4)GlcNAc(b1-4)GlcNAc
# Method in brief: as §1
# [19] = target: Man(a1-2)Man(a1-3)[Man(a1-6)]Man(a1-6)[Man(a1-2)Man(a1-3)]Man(b1-4)GlcNAc(b1-4)GlcNAc
# Method in brief: as §1
# [20] = target: Man(a1-2)Man(a1-6)[Man(a1-3)]Man(a1-6)[Man(a1-2)Man(a1-2)Man(a1-3)]Man
# Method in brief: as §1
# [21] = target: Man(a1-2)Man(a1-6)[Man(a1-3)]Man(a1-6)[Man(a1-2)Man(a1-2)Man(a1-3)]Man(b1-4)GlcNAc(b1-4)GlcNAc
# Method in brief: as §1
# [22] = target: Man(a1-3)[Man(a1-6)]Man
# Method in brief: as §1
# [23] = target: Man(a1-3)[Man(a1-6)]Man(a1-6)[Man(a1-2)Man(a1-3)]Man(b1-4)GlcNAc(b1-4)GlcNAc
# Method in brief: as §1
# [24] = target: Man(a1-3)[Man(a1-6)]Man(a1-6)[Man(a1-3)]Man
# Method in brief: as §1
# [25] = target: Man(a1-3)[Man(a1-6)]Man(a1-6)[Man(a1-3)]Man(b1-4)GlcNAc(b1-4)GlcNAc
# Method in brief: as §1
# [26] = target: Man(a1-3)[Man(a1-6)]Man(b1-4)GlcNAc(b1-4)GlcNAc
# Method in brief: as §1
# [27] = target: Man(a1-3)[Man(a1-6)]Man(b1-4)GlcNAc(b1-4)[Fuc(a1-6)]GlcNAc
# Method in brief: as §1
# [28] = target: Man(a1-6)Man
# Method in brief: as §1
# [29] = target: Man(b1-4)GlcNAc
# Method in brief: as §1
# [30] = target: MurNAc(b1-4)GlcNAc
# Method in brief: as §1
# [31] = target: Neu5Ac(a2-3)Gal
# Method in brief: as §1
# [32] = target: Neu5Ac(a2-3)Gal(b1-3)GalNAc
# Method in brief: as §1
# [33] = target: Neu5Ac(a2-3)Gal(b1-3)GalNAc(b1-3)Gal(a1-4)Gal(b1-4)Glc
# Method in brief: as §1
# [34] = target: Neu5Ac(a2-3)Gal(b1-3)GalNAc(b1-4)[Neu5Ac(a2-3)]Gal(b1-4)Glc
# Method in brief: as §1
# [35] = target: Neu5Ac(a2-3)Gal(b1-3)GalNAc(b1-4)[Neu5Ac(a2-8)Neu5Ac(a2-3)]Gal(b1-4)Glc
# Method in brief: as §1
# [36] = target: Neu5Ac(a2-3)Gal(b1-3)GalNAc6S
# Method in brief: as §1
# [37] = target: Neu5Ac(a2-3)Gal(b1-3)GlcNAc
# Method in brief: as §1
# [38] = target: Neu5Ac(a2-3)Gal(b1-3)GlcNAc(b1-2)Man
# Method in brief: as §1
# [39] = target: Neu5Ac(a2-3)Gal(b1-3)GlcNAc(b1-2)Man(a1-3)[GlcNAc(b1-4)][Neu5Ac(a2-3)Gal(b1-3)GlcNAc(b1-2)Man(a1-6)]Man(b1-4)GlcNAc(b1-4)GlcNAc
# Method in brief: as §1
# [40] = target: Neu5Ac(a2-3)Gal(b1-3)GlcNAc(b1-2)Man(a1-3)[Neu5Ac(a2-3)Gal(b1-3)GlcNAc(b1-2)Man(a1-6)]Man(b1-4)GlcNAc(b1-4)GlcNAc
# Method in brief: as §1
# [41] = target: Neu5Ac(a2-3)Gal(b1-3)GlcNAc(b1-2)[Neu5Ac(a2-3)Gal(b1-3)GlcNAc(b1-4)]Man(a1-6)[Neu5Ac(a2-3)Gal(b1-3)GlcNAc(b1-2)Man(a1-3)]Man(b1-4)GlcNAc(b1-4)GlcNAc
# Method in brief: as §1
# [42] = target: Neu5Ac(a2-3)Gal(b1-3)GlcNAc(b1-3)Gal(b1-3)GlcNAc
# Method in brief: as §1
# [43] = target: Neu5Ac(a2-3)Gal(b1-3)GlcNAc(b1-3)Gal(b1-4)GlcNAc
# Method in brief: as §1
# [44] = target: Neu5Ac(a2-3)Gal(b1-3)GlcNAc(b1-3)GalNAc
# Method in brief: as §1
# [45] = target: Neu5Ac(a2-3)Gal(b1-3)GlcNAc(b1-4)Gal(b1-4)Glc
# Method in brief: as §1
binder,measurement,setting,value
B1,glycan array binding signal (z-score),[1],-0.305
same,glycan array binding signal (z-score),[2],-0.339
same,glycan array binding signal (z-score),[3],-0.302
same,glycan array binding signal (z-score),[4],1.23
same,glycan array binding signal (z-score),[5],-0.326
same,glycan array binding signal (z-score),[6],1.46
same,glycan array binding signal (z-score),[7],-0.296
same,glycan array binding signal (z-score),[8],-0.225
same,glycan array binding signal (z-score),[9],-0.22
same,glycan array binding signal (z-score),[10],-0.284
same,glycan array binding signal (z-score),[11],-0.196
same,glycan array binding signal (z-score),[12],-0.227
same,glycan array binding signal (z-score),[13],-0.34
same,glycan array binding signal (z-score),[14],-0.25
same,glycan array binding signal (z-score),[15],-0.318
same,glycan array binding signal (z-score),[16],-0.366
same,glycan array binding signal (z-score),[17],-0.347
same,glycan array binding signal (z-score),[18],-0.32
same,glycan array binding signal (z-score),[19],-0.344
same,glycan array binding signal (z-score),[20],-0.399
same,glycan array binding signal (z-score),[21],-0.334
same,glycan array binding signal (z-score),[22],-0.212
same,glycan array binding signal (z-score),[23],-0.281
same,glycan array binding signal (z-score),[24],-0.324
same,glycan array binding signal (z-score),[25],-0.273
same,glycan array binding signal (z-score),[26],-0.318
same,glycan array binding signal (z-score),[27],-0.271
same,glycan array binding signal (z-score),[28],-0.267
same,glycan array binding signal (z-score),[29],-0.281
same,glycan array binding signal (z-score),[30],-0.328
same,glycan array binding signal (z-score),[31],-0.294
same,glycan array binding signal (z-score),[32],-0.339
same,glycan array binding signal (z-score),[33],-0.301
same,glycan array binding signal (z-score),[34],-0.293
same,glycan array binding signal (z-score),[35],-0.29
same,glycan array binding signal (z-score),[36],-0.26
same,glycan array binding signal (z-score),[37],-0.295
same,glycan array binding signal (z-score),[38],-0.302
same,glycan array binding signal (z-score),[39],-0.267
same,glycan array binding signal (z-score),[40],-0.325
same,glycan array binding signal (z-score),[41],-0.284
same,glycan array binding signal (z-score),[42],-0.4
same,glycan array binding signal (z-score),[43],-0.348
same,glycan array binding signal (z-score),[44],-0.295
same,glycan array binding signal (z-score),[45],-0.35
